{"source": "paper PMC4336329", "about": "(PLoS ONE, 2015)", "note": "In all, about 310,000 compounds went through this assay and about 14,000 (4.5%) showed an effect of 50% or more. Effects have a minus sign here. This is one part of the list.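 Further: peak tail current of the secondary pulse compared with the same well before compound.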"}
{"biological_target": "human ether-à-go-go-related gene (hERG) potassium channel (human, UniProt Q12809)", "sequence (Q12809 whole entry, looked up)": "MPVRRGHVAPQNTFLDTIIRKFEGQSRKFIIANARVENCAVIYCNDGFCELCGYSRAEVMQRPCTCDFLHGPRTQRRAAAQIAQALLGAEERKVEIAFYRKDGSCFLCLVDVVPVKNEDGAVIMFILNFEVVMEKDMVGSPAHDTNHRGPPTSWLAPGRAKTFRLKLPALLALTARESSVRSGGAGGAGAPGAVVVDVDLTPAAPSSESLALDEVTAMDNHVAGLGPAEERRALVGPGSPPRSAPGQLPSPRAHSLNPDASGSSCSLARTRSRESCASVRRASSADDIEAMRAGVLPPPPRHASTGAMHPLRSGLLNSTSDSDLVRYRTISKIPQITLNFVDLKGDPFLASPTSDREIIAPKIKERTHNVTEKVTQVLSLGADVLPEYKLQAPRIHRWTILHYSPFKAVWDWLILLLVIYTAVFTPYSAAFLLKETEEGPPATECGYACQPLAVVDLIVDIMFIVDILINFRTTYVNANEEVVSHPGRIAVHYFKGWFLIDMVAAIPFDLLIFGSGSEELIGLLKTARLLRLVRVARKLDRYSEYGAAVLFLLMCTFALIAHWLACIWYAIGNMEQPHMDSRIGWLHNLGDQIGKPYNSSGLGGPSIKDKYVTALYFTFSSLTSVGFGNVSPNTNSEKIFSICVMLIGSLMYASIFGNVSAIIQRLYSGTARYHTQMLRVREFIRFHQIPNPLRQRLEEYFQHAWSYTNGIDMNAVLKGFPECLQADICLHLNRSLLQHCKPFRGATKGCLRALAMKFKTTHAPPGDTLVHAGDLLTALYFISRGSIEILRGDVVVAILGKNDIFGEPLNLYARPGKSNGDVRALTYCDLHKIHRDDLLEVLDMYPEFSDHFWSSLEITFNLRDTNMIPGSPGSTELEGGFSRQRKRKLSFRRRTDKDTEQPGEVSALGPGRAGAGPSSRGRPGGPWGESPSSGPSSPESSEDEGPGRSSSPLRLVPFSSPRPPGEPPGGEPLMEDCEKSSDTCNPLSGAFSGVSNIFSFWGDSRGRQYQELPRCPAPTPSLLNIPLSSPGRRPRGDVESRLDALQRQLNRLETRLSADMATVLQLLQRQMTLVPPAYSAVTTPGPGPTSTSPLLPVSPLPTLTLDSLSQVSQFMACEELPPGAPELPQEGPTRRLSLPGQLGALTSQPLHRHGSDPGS", "experiment": "primary screen, population patch clamp on CHO cells stably expressing hERG", "units": {"hERG current change (%, negative = inhibition) at 10uM": "%"}}
{"compound": "Cc1ccc(C)c(S(=O)(=O)N2CCN(C(=O)c3sccc3C)CC2)c1", "hERG current change (%, negative = inhibition) at 10uM": -30.7}
{"compound": "COCCn1nnnc1CN1CCC(NC(=O)c2ccc(Br)cc2)CC1", "hERG current change (%, negative = inhibition) at 10uM": -39}
{"compound": "CCOC(=O)c1c(C)n(OCc2ccccc2)c2ccc3c(no[n+]3[O-])c12", "hERG current change (%, negative = inhibition) at 10uM": 4.39}
{"compound": "COc1ccc(C2=NCC(=O)N(CC(=O)NCc3ccco3)c3sc4c(c32)CCCC4)cc1OC", "hERG current change (%, negative = inhibition) at 10uM": -17.3}
{"compound": "S=c1nccc(-c2ccc3c(c2)CCO3)[nH]1", "hERG current change (%, negative = inhibition) at 10uM": -9.24}
{"compound": "O=C(NCCCc1ccccc1)C(=O)NCC1OCCN1S(=O)(=O)c1ccc(F)cc1", "note": "(stereo not drawn)", "hERG current change (%, negative = inhibition) at 10uM": 7.26}
{"compound": "COc1cc(S(=O)(=O)NCc2ccccc2)ccc1-n1cnnn1", "hERG current change (%, negative = inhibition) at 10uM": -11}
{"compound": "CCOC(=O)c1[nH]cnc1C(=O)Nc1ccc(C)cc1", "hERG current change (%, negative = inhibition) at 10uM": 11.6}
{"compound": "COc1ccc(/C(C)=N/Nc2nc3ccccc3n3cnnc23)cc1OC", "hERG current change (%, negative = inhibition) at 10uM": -19.4}
{"compound": "CCN(CC)S(=O)(=O)c1ccc(C(=O)NCc2ccc3c(c2)OCO3)cc1", "hERG current change (%, negative = inhibition) at 10uM": 2.77}
{"compound": "O=C1CC(N2CCN(S(=O)(=O)c3cccc(C(F)(F)F)c3)CC2)C(=O)N1Cc1ccccc1", "note": "(stereo not drawn)", "hERG current change (%, negative = inhibition) at 10uM": -21.2}
{"compound": "CCN(CC)CCn1c2c(c(SCC(=O)NCc3ccccc3)nc1=O)CCCC2", "hERG current change (%, negative = inhibition) at 10uM": -31.4}
{"compound": "CCn1c(O)c(C=Nc2ccc(N3CCOCC3)c(Br)c2)c(=O)n(CC)c1=S", "hERG current change (%, negative = inhibition) at 10uM": 2.18}
{"compound": "COC(=O)CC(=O)N1CCN(c2ccc(Cl)c(Cl)c2)CC1", "hERG current change (%, negative = inhibition) at 10uM": -8.16}
{"compound": "CC1CCC(NC(=O)C2CCN(S(=O)(=O)c3cccc4nonc34)CC2)CC1", "note": "(stereo not drawn)", "hERG current change (%, negative = inhibition) at 10uM": 0.619}
{"compound": "COc1cc(C)c(CNc2cccc(C)c2)cc1C", "hERG current change (%, negative = inhibition) at 10uM": 2.74}
{"compound": "CCN(CC)S(=O)(=O)c1ccc(Cl)c(C(=O)OC2CC(C)OC2=O)c1", "note": "(stereo not drawn)", "hERG current change (%, negative = inhibition) at 10uM": 10.6}
{"compound": "CNc1cc(CSC)nc(SCc2ccc(Cl)c(Cl)c2)n1", "hERG current change (%, negative = inhibition) at 10uM": 0.667}
{"compound": "C/C(=N\\NC(=O)c1c(C)nc2ccccn12)c1ccccc1F", "hERG current change (%, negative = inhibition) at 10uM": 1.58}
{"compound": "CCCOc1ccc(C2C(C(=O)OC)=C(C)N=C3SCCC(=O)N32)cc1OCC", "note": "(stereo not drawn)", "hERG current change (%, negative = inhibition) at 10uM": -9.52}
{"compound": "Cc1cc(C)c(NC(=O)c2ccc(S(=O)(=O)N(C)C)cc2)c(C)n1", "hERG current change (%, negative = inhibition) at 10uM": 7.04}
{"compound": "CC(=O)c1ccc(NC(=O)c2sc3nc(C)c(C)c(C)c3c2N)cc1", "hERG current change (%, negative = inhibition) at 10uM": 19.3}
{"compound": "Cl.O=C(NCCN1CCN(c2ccccc2)CC1)c1ccccc1F", "hERG current change (%, negative = inhibition) at 10uM": -11}
{"compound": "O=C(O)C(=O)O.O=[N+]([O-])c1ccc(S(=O)(=O)N(CCCN2CCOCC2)Cc2cccs2)cc1", "hERG current change (%, negative = inhibition) at 10uM": -70.6}
